{
  "source": "patent US20070077609A1",
  "about": "(STANFORD UNIVERSITY, published 2007)",
  "binders": {"B1": {"name": "FKBP12-RLUC fusion protein (FKBP12 fused to the N-terminus of hRluc) (other)", "chain": "[letters of about 100 residues not shown]MASKVYDPEQRKRMITGPQWWARCKQMNVLDSFINYYDSEKHAENAVIFLHGNAASSYLWRHVVPHIEPVARCIIPDLIGMGKSGKSGNGSYRLLDHYKYLTAWFELLNLPKKIIFVGHDWGACLAFHYSYEHQDKIKAIVHAESVVDVIESWDEWPDIEEDIALIKSEEGEKMVLENNFFVETMLPSKIMRKLEPEEFAAYLEPFKEKGEVRRPTLSWPREIPLVKGGKPDVVQIVRNYNAYLRASDDLPKMFIESDPGFFSNAIVEGAKKFPNTEFVKVKGLHFSQEDAPDEMGKYIKSFVERVLKNEQ", "notes": "Expressed inside transfected 293T, N2a or A375M cells; also called FKBP12-hRluc; pFKBP12-hRluc"}},
  "key": {"[1]": {"biological_target": "T1, GFP^2-FRB fusion protein (FRB fused to the C-terminus of GFP^2) (human, UniProt P42345 2021-2113)", "T1 construct": "Expressed inside transfected cells; also called pGFP^2-FRB; GFP-F; not shown: mutant green fluorescent protein GFP^2 from bought pGFP^2-C3 vector (Perkin Elmer)", "T1 sequence (P42345 2021-2113)": "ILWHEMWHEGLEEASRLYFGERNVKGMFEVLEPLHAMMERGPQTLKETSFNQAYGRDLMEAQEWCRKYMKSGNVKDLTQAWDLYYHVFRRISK", "assay": "BRET^2 time course in co-transfected 293T cells; 78 h, 8 h after rapamycin was added again", "protocol": "(§1) FIG. 4D illustrates a chart showing dynamic nature of a BRET signal. 293T cells transfected with pFKBP12-hRluc and pGFP²-FRB plasmids in a 1:1 ratio were distributed in equal numbers in a 24 well plate. The dashed line represents the BRET² ratio over time, where transfected cells were maintained throughout with rapamycin (160 nM). The solid line represents the BRET² ratio over time, where rapamycin was added and withdrawn at different time points from the incubating media of the transfected cells. As shown by the cross-hatched zone on the X-axis marked as +R or −R, rapamycin was added to the experimental cells after first scanning at 24 hours. After 6 hours incubation another scan was performed (30 hours).\n(§2) To elucidate the dynamic nature of the BRET system, 293T cells co-transfected with pFKBP12-hRluc and pGFP²-FRB were repeatedly imaged by adding and withdrawing rapamycin in succession at different time points from the incubating medium. As control, the same transfected cells were constantly maintained in rapamycin containing media. […] Once rapamycin is added in the medium, it takes about 40 hours to have the BRET² ratio come down to 0.17 in rapamycin free condition."}, "[2]": {"biological_target": "T1, GFP^2-FRB fusion protein (FRB fused to …)", "assay": "BRET^2 time course in co-transfected 293T cells; 24 h, before rapamycin was added", "protocol": "as §1, §2"}, "[3]": {"biological_target": "T1, GFP^2-FRB fusion protein (FRB fused to …)", "assay": "BRET^2 time course in co-transfected 293T cells; 70 h, about 40 h after rapamycin was withdrawn", "protocol": "as §1, §2"}, "[4]": {"biological_target": "T1, GFP^2-FRB fusion protein (FRB fused to …)", "assay": "BRET^2 time course in co-transfected 293T cells; 30 h, after 6 h with rapamycin", "protocol": "as §1, §2"}},
  "data": [
    {"binder": "B1", "values": [
      {"measurement": "BRET^2 ratio", "setting": "[1]", "value": 0.79},
      {"measurement": "BRET^2 ratio", "setting": "[2]", "value": 0.29},
      {"measurement": "BRET^2 ratio", "setting": "[3]", "value": 0.17},
      {"measurement": "BRET^2 ratio", "setting": "[4]", "value": 1.16}
    ]}
  ]
}
